# Measurements published in the supplement of paper PMC5499739.
# Over roughly 16,000 sequences, “Z-score” has its median near -0.37; the highest 2% begin near 3.2. The list shows a part of the results.
# System: RBM10 RRM1-ZnF (GST-tagged construct)
# Test: RNAcompete 7-mer binding Z-score; higher = stronger binding preference
# Procedure, shortened: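 A one-sided Z-score for enrichment, taken across the probes containing each heptamer motif, was assigned to every such motif. The RNA came from a designed pool of 241 399 sequences up to 41 nt (1.5 nmol), bound by 20 pmol of GST-tagged RBM10 constructs in 1 ml Hepes pH 7.8 buffer with glutathione Sepharose beads for 30 min at 4°C. Four 2-min washes at 4°C preceded identification of bound RNA by microarray hybridisation.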
row,Sequence,RNAcompete 7-mer binding Z-score
1,GCAGCAC,-0.415
2,AACCCCA,-0.483
3,GGGGAAC,2.42
4,UCAGAUC,-0.604
5,ACGCAGC,-0.652
6,ACUCGAU,-0.688
7,GAAUGGG,4.76
8,GCCCCAG,-0.149
9,GCUCAAC,-0.6
10,GUGCUUA,-0.318
11,UGAUCAU,-0.574
12,UAACAUG,-0.175
13,AUACGCC,-0.678
14,CAUCGUA,-0.535
15,GGAAUUA,1.04
16,AUCUGCC,-0.889
17,AAUGAAU,-0.201
18,GGUACCU,0.0755
19,UAAGAGC,-0.21
20,ACGGCUA,-0.357
21,ACUAGCG,-0.269
22,AUCGGCA,-0.181
23,GGCGAGC,1.64

row,Sequence,RNAcompete 7-mer binding Z-score
1,CCGUGAC,-0.409
2,AAGGGGG,4.31
3,AGUCAGU,0.0105
4,GGGCCUG,0.436
5,CAAAACG,-0.119
6,UGCCGUU,-0.685
7,GUAGUGG,2.22
8,CAUUCCG,-0.837
9,UAUCUAC,-0.506
10,AUUUGGU,0.634
11,AAUUCCU,-0.785
12,UGGUGUA,1.52
13,AACCAUC,-0.763
14,UUGUGGG,2.83
15,ACAAUUA,-0.428
16,UUCGCUU,-0.883
17,GCCCUCU,-0.724
18,CCACAUA,-0.805
19,CGCUUUG,-0.701
20,AUAGGUC,0.199
21,UUUCCAC,-0.73
22,CAGUCCG,-0.75
23,AGGAUUU,0.118

row,Sequence,RNAcompete 7-mer binding Z-score
1,AAACACC,-0.6
2,UUACGUU,-0.766
3,ACGGAAG,1.69
4,GGUGCAG,2.42
5,ACAGUUA,-0.298
6,AGUCGGG,1.43
7,ACUGACU,-0.457
8,GGUGUAG,2.85
9,UUGGGUU,2.66
10,ACAGCUC,-0.753
11,AGUCUUU,-0.798
12,CAAUAAA,-0.649
13,CUUACAU,-0.805
14,AGCCCCU,-0.483
15,UCAAGGC,-0.0772
16,ACUUGUU,-0.698
17,UCCUGGC,-0.594
18,GAAGUCU,-0.503
19,CAGAGGG,2.22
20,CAGAUGU,-0.0609
21,AUAACCG,-0.639
22,CUUUUGG,-0.311
23,CGGUGGA,2.43

row,Sequence,RNAcompete 7-mer binding Z-score
1,ACGGGCA,1.68
2,GGCCGAA,-0.223
3,UCUAUUU,-0.854
4,GUCGAUU,-0.269
5,AACACGG,0.274
6,CGUGUAG,0.322
7,CCUUUGU,-0.948
8,UCCGGUG,-0.0804
9,GCGCCCC,-0.0934
10,GACUUAC,-0.727
11,CGAUUUA,-0.574
12,AUGUAUC,-0.444
13,CUGCCAU,-0.847
14,GGCGUAC,0.426
15,CACCUGA,-0.698
16,UAGAGUA,0.677
17,UGUGAUU,-0.376
18,ACCCGUG,-0.438
19,AUGGUCU,-0.165
20,UCCUCUA,-0.756
21,GGGGGGU,3.81
22,UGCUGGC,-0.0674
23,CUGGCUC,-0.5

row,Sequence,RNAcompete 7-mer binding Z-score
1,GAUCAGU,-0.0414
2,GGCCUCU,-0.694
3,GUUCAGA,-0.246
4,ACUCCCA,-0.821
5,AAUCGGC,-0.331
6,AAUUCAC,-0.737
7,ACUUACC,-0.733
8,UAAUCCC,-0.841
9,CGGAUUU,-0.282
10,AUCGUAA,-0.571
11,GUUUCGC,-0.35
12,CAUCCAG,-0.694
13,CCGUCCU,-0.828
14,AGUACGA,-0.022
15,AGUCCAU,-0.672
16,AGUUCGA,-0.558
17,CAUCGCU,-0.818
18,UUACCAU,-0.668
19,UAGCGAA,-0.0707
20,GCAGCAG,0.618
21,CAGCGCU,-0.441
22,AUUAGGA,2.2
23,UCACUCC,-0.724

row,Sequence,RNAcompete 7-mer binding Z-score
1,CACCUCC,-0.6
2,AAUAUCA,-0.428
3,CAAAUUU,-0.681
4,UCGGGAU,1.23
5,GGGCGAU,1.4
6,ACUAUGC,-0.626
7,CGUUCCA,-0.789
8,CCAGUUA,-0.636
9,CACCGAA,-0.604
10,AGCGGCA,0.631
11,UUGGCUU,-0.467
12,CGUACAC,-0.483
13,GGGAUAG,4
14,UUCGUAC,-0.694
15,GCUAAUA,-0.396
16,AACAUCU,-0.756
17,ACCCUGC,-0.629
18,UUCCUGG,-0.513
19,AAGUCGG,0.8
20,AGCAACG,0.0365
21,GGAGUCU,0.16
22,UGUCUGG,0.339
23,ACACCCU,-0.854

row,Sequence,RNAcompete 7-mer binding Z-score
1,CUCCUCU,-0.681
2,CCAUAUA,-0.681
3,UUGAUGU,-0.34
4,ACAGACC,-0.522
5,CCAUUAC,-0.873
6,UUGUGCC,-0.535
7,UGUCGAG,0.00729
8,UUACGAU,-0.539
9,GACUUAG,-0.256
10,CCUUUGG,-0.522
11,GAGAAAA,0.361
12,GAAUGCG,0.501
13,CUGCACU,-0.522
14,CGCAGCU,-0.503
15,UUCGCUG,-0.636
16,GUUAAUG,0.768
17,UACUAAA,-0.545
18,GUCUGCC,-0.513
19,GACUCGU,-0.685
20,GGACACC,0.748
21,GCGGGGU,3.75
22,UCAUAGC,-0.769
23,CAAAAGU,-0.558

row,Sequence,RNAcompete 7-mer binding Z-score
1,ACCUGAA,-0.707
2,GGUGCGC,1.51
3,CCUGGUC,-0.392
4,UCAAAUC,-0.824
5,UUUACGG,-0.223
6,AUAUGGC,0.03
7,GCAAACA,-0.0999
8,GACACCU,-0.633
9,UCGGACU,-0.383
10,AAUCCAC,-0.662
11,AGGCGGG,2.83
12,CUCAUGU,-0.73
13,CUGGUUA,0.128
14,AACCUUU,-0.932
15,AUAACCC,-0.782
16,AAAACUA,-0.477
17,CCCUACG,-0.555
18,UGUCCCA,-0.522
19,GCCGAUC,-0.717
20,GUUGCGA,0.485
21,GAUUAGA,0.189
22,UGGGAUU,1.9
